In all, about 110,000 compounds went through this assay and about 230 (0.21%) showed an effect of 50% or more. This is one part of the list.
biological target: DPAP1 (Plasmodium falciparum, UniProt Q8IIJ9); assay: primary screen, percent inhibition; read by cleavage of a fluorogenic dipeptide substrate; higher = more effect of the substance; set-up: species or system P. falciparum D10 trophozoite lysates; single well
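Also: 30 min substrate incubation versus DMSO and 10 µM JCP410 controls.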

DPAP1, sequence (Q8IIJ9 whole entry, looked up): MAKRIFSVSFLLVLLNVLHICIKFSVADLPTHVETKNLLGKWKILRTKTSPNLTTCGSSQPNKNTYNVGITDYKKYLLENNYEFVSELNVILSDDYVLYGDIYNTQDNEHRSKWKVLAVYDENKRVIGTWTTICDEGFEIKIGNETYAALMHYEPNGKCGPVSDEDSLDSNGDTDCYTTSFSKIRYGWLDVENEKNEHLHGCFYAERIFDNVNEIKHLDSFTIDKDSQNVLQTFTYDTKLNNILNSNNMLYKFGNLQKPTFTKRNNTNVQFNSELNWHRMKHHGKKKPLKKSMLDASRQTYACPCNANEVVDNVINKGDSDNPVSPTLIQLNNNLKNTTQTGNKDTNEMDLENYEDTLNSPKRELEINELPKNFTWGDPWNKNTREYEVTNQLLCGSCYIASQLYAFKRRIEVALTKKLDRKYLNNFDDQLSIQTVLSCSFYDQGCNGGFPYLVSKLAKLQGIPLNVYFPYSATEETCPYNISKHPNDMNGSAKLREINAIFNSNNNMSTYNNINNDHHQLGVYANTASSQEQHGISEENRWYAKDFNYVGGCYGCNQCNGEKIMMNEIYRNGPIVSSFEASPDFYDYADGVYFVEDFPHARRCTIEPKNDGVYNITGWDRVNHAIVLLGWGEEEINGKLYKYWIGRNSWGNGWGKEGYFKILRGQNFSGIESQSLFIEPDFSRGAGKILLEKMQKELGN

In order of falling “% Inhibition @ 10 uM” value:
1. CCN(CC)CCCNC(=O)c1ccc2c(c1)sc1nc(-c3ccc(F)cc3)cn12  10.9%
2. Cc1nc2nc(SCC(=O)NCc3ccco3)nn2c(C)c1Cc1c(F)cccc1Cl  9.37%
3. O=C1CCC(=O)N1CC(=O)N1CCCc2ccccc21  7.64%
4. COCCCNC(=O)COc1cc(C)ccc1C  6.86%
5. CN(CCNC(=O)Cn1ncc2c3ccccc3n(C)c2c1=O)C1CCCCC1  6.46%
6. O=C1OC(c2cc(F)c(F)cc2Cl)=N/C1=C\c1cccs1  6.11%
7. Cc1cccc(C(=O)Nc2c(-c3cccs3)nc3cc(C)ccn23)c1  6.03%
8. CCOC(=O)c1c2n(c3cc(Cl)c([N+](=O)[O-])cc3c1=O)CCC2  5.55%
9. COc1ccc(Nc2nc(-c3sc(C)nc3C)cs2)cc1  5.24%
10. Cc1[nH]c2ccc(C(=O)N3CCN(Cc4ccccc4)CC3)cc2c1C  5.08%
11. Cc1ccsc1/C=C1\N=C(c2ccccc2Cl)OC1=O  4.54%
12. CNC(=O)c1oc2c(c1C)-c1nn(Cc3ccc(Cl)cc3)cc1CC2  4.33%
13. CCN1CCC(N2CCN(CCOCCO)CC2)CC1  3.48%
14. Cc1ccc(S(=O)(=O)N(CCC#N)C2CCCCC2)cc1  3.32%
15. CCOc1cccc(NC(=O)C2CC(=O)N(c3cccc(Cl)c3C)C2)c1 (stereo not drawn)  3.17%
16. O=C1NC(=O)N(c2cccc3ccccc23)C(=O)/C1=C\c1ccc2c(c1)OCO2  2.7%
17. O=C(Nc1ccc2c(c1)OCO2)c1ccccc1Br  2.64%
18. CCN(CC)CCn1c(NCc2ccc(C)cc2)nc2ccccc21  2.31%
19. Cc1ccc(NS(=O)(=O)c2c(C)cc(C)cc2C)c(C)c1  2.26%
20. C#CCOc1ccc(Br)cc1C1C(C#N)=C(N)Oc2cc(O)ccc21 (stereo not drawn)  2.25%
21. Cc1cccn2c(=O)c(/C=C(\C#N)C(=O)NCc3ccco3)c(Oc3ccc(C(C)(C)C)cc3)nc12  2%
22. O=c1/c(=C/c2cccc3ccccc23)sc2ncnn12  1.91%
23. O=C(c1sc2cc(F)ccc2c1Cl)N1CCCCC1  1.84%
24. N#CCc1nc(-c2ccc(-c3ccccc3)cc2)cs1  1.7%
25. CC(C)C[C@@H](C(=O)NCC#N)c1cccc(-c2ccc(C3(C)CCN(C)CC3)cc2)c1  1.7%
26. COc1ccc(C(=O)NCC23C=CC(O2)C2C(=O)N(Cc4ccccc4)C(=O)C23)cc1 (stereo not drawn)  1.44%
27. CC1CCc2c(sc(NC(=O)/C=C/c3ccc(F)cc3)c2C#N)C1 (stereo not drawn)  1.25%
28. CCOC(=O)N1CCN(C(=O)C2CCC(C/N=c3/c(N4CCCCC4)c(O)c3=O)CC2)CC1 (stereo not drawn)  1.22%
29. CNC(=O)c1cc2oc3ccccc3c2n1C  1.22%
30. COc1ccc(C)cc1N(CC(=O)NC1CC2CCC1C2)S(C)(=O)=O (stereo not drawn)  1.21%
31. CC(C)c1ccc(NC(=O)c2ccncc2)cc1  0.812%
32. Cc1ccc(N2C(=O)NC(=O)/C(=C/Nc3ccccc3C(=O)O)C2=O)cc1  0.76%
33. Clc1ccc(N2N=C(/C=C/c3ccccc3)CC2c2ccccc2)cc1Cl (stereo not drawn)  0.716%
34. CCc1ccc(OCCSc2nc(-c3ccccc3)nc3cc(=O)[nH]n23)cc1  0.586%
35. COc1cc(OC)cc(C(=O)N(CCCN(C)C)c2nc3c(C)c(C)ccc3s2)c1  0.49%
36. COc1ccc(-c2noc(CN(C(=O)C3CCCCC3)C(C)C)n2)cc1  -0.0593%
37. CCOC(=O)c1c(C)n(-c2ccc(C)cc2)c2ccc(OCC(O)Cn3nc(C)cc3C)cc12 (stereo not drawn)  -0.278%
38. O=C(CSc1nnnn1-c1ccccc1F)NCc1ccco1  -0.403%
39. CN(C)c1nc(N)nc(CSc2nnc(CCc3ccccc3O)n2-c2ccccc2)n1  -0.403%
40. CCn1c2ccccc2c2cc(C3NC(=O)NC(C)=C3C(=O)OCCSC)ccc21 (stereo not drawn)  -0.703%
41. CCCN(CCC)CCCNC(=O)CCN1N=C(c2ccc(OC)cc2)CCC1=O  -0.971%
42. Cc1oc(-c2ccc(Cl)cc2)nc1CS(=O)CC(=O)NC1CCCc2ccccc21 (stereo not drawn)  -1.05%
43. O=C(O)CSc1cccnc1Sc1ccc(Cl)cc1  -1.06%
44. CCc1ccc(NC(=O)Cn2cnc3ccccc3c2=O)cc1  -1.22%
45. COc1ccc(/C=C2\N=C(c3ccc(Cl)cc3Cl)OC2=O)cc1OC  -1.51%
46. CCN(CC)CCNC(=O)CSc1c2c(nc3cc(Cl)ccc13)CCCC2  -1.7%
47. CCOC(=O)c1ccc(NC(=O)c2ccc([N+](=O)[O-])cc2)cc1  -1.76%
48. O=C(O)c1cnc2c(F)c(F)c(F)c(NCc3ccccc3)c2c1O  -1.85%
49. O=C(c1ccco1)N(Cc1ccc(Cl)cc1)C1CCS(=O)(=O)C1 (stereo not drawn)  -1.94%
50. CC1=C(C(=O)Nc2ccc(Br)cc2)C(c2ccccc2)NC(=O)N1 (stereo not drawn)  -2.18%
51. O=C(CN1C(=O)c2cccc3cccc1c23)N1CCN(c2cccc(Cl)c2)CC1  -2.74%
52. COc1ccc(NC(=O)CN2C(=O)c3ccccc3S2(=O)=O)cc1  -2.74%
53. CCCC(=O)Nc1ccc(S(=O)(=O)N2CCCC2)cc1  -2.83%
54. CCNc1nc2nc(O)c3c(c2s1)OC(N)=C(C#N)C3c1ccc(C)cc1 (stereo not drawn)  -2.83%
55. Cc1c(C)c2cc3c(C(C)(C)C)coc3cc2oc1=O  -2.92%
56. CC(C)(C)/C(O)=C/C=N/c1ccccc1Oc1ccccc1  -3.16%
57. O=C(CSc1nnc(-c2cccnc2)o1)c1c[nH]c2ccccc12  -3.21%
58. CNc1nc2c(c(=O)[nH]c(=O)n2C)n1CCCc1ccccc1  -3.83%
59. CC(=O)Nc1ccc(N2C(=O)CC(NC3CCN(Cc4ccccc4)CC3)C2=O)cc1 (stereo not drawn)  -3.85%
60. CCn1cc(C2=NOC(C(=O)NCc3ccc4c(c3)OCO4)C2)c(C)n1 (stereo not drawn)  -4.85%
61. CC(=O)Nc1ccc(C2C(C#N)=C(N)OC3=C2C(=O)CC(C)C3)cc1 (stereo not drawn)  -4.94%
62. Cc1cc(C)nc(/N=C(\N)C2=C(O)CC(C)(C)CC2=O)n1  -5.28%
63. CN1CCN(c2ncnc3c2cnn3-c2ccc(Cl)cc2)CC1  -6.68%

From paper PMC6919601, “Identification of Plasmodium dipeptidyl aminopeptidase allosteric inhibitors by high throughput screening” (PLoS ONE, 2019)
